# Some of the results follow. The main result of the screen is listed elsewhere. These columns were measured beside it and carry no call. Most of these compounds were active or inconclusive in the main read-out, so they are no random draw.
# Biological target: Runt-related transcription factor 1 (Homo sapiens) + Core-binding factor subunit beta (Homo sapiens) (UniProt Q01196+Q13951)
# Test: inhibitors of RUNX1 Runt–CBFb-SMMHC binding, primary screen, biochemical, FRET, Cerulean-Runt, Venus-CBFb-SMMHC, uHTS (AID 1434);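 also: 0% = DMSO wells and 100% = wells with excess untagged CBFb-SMMHC; inhibitors lower the FRET ratio by blocking Runt binding to CBFb-SMMHC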
# Settings: Cerulean-Runt/Venus-CBFb-SMMHC FRET ratio 530/480, 1 h; retest duplicate average; at 20 µM; stronger effect = higher value
# Sequence of UniProt Q01196 (Q01196 whole entry, looked up): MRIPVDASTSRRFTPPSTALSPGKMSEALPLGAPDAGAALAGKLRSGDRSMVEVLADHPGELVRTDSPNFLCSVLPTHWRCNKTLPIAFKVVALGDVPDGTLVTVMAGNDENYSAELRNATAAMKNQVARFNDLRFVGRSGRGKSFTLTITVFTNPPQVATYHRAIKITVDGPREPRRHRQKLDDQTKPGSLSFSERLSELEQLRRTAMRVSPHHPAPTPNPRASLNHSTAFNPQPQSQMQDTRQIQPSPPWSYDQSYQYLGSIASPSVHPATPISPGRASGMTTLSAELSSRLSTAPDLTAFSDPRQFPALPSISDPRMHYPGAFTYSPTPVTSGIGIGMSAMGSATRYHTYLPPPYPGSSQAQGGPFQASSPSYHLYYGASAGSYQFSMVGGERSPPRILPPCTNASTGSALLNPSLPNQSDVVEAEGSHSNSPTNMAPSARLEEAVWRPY
# Sequence of UniProt Q01196 (Q13951 whole entry, looked up): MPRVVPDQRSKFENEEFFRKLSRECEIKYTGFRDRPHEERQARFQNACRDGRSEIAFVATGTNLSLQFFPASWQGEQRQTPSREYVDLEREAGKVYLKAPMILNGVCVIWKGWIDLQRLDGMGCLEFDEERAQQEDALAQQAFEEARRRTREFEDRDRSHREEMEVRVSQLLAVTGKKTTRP
row,Compound,inhibition
1,COc1ccc(C2OC34CCCCC3C(C#N)(C#N)C2(C#N)C(=N)O4)cc1 (stereo unspecified),74.9%
2,Cc1cccn2c(=O)c3cc(C(=O)NC(C)C)c(=N)n(Cc4ccncc4)c3nc12,72.9%
3,CCOC(=O)c1c(N)n(C2CC(C)(C)NC(C)(C)C2)c2nc3ccccc3nc12,108%
4,COCCNc1cc(C)nc2c3c(C)cc(C)nc3nn12,77.3%
5,CCCCn1c(=NC(=O)c2cccnc2)c(C#N)cc2c(=O)n3cccc(C)c3nc21,72.9%
6,O=C(O)c1ccc(N/N=C/c2ccc(-c3cccc(Cl)c3)o2)cc1,103%
7,COc1ccc(OC)c(C2C(C(=O)Nc3nc4ccccc4s3)=C(C)NC3=C2C(=O)CCC3)c1 (stereo unspecified),81.7%
8,Cc1c(O)c(CN2CCCCC2)cc2c3c(c(=O)oc12)CCC3,146%
9,CN1/C(=C\C(=O)c2cccs2)Sc2ccccc21,96.3%
10,CCn1cc(C2C3=C(CC(C)(C)CC3=O)N(c3ccccc3)C3=C2C(=O)CC(C)(C)C3)c(C)n1,81%
11,Nc1ccc2c(C(F)(F)F)cc(=O)oc2c1,72.9%
12,CCN1C=CC2=C(C#N)C(N)C(C#N)(C#N)C(c3ccccc3C(F)(F)F)C2C1 (stereo unspecified),71.5%
13,COc1ccc2ccccc2c1C(O)c1nccn1C (stereo unspecified),116%
14,N#Cc1c(N)sc2c1CCN(CCc1ccccc1)C2,137%
15,NC(=O)c1cc2ccc(O)cc2oc1=Nc1ccccc1,72.9%
16,Cc1cc(=O)oc2cc(OC(=O)c3cncc(Br)c3)ccc12,54.2%
17,Cc1ccc(S(=O)(=O)NCCC(=O)Oc2ccc3ccc(=O)oc3c2)cc1,67.2%
18,Cc1cccc(Oc2nc3ccccn3c(=O)c2/C=C(\C#N)C(=O)NC2CCS(=O)(=O)C2)c1 (stereo unspecified),71.5%
19,CCCn1c(C)nc2c(c1=O)c1nc3ccccc3nc1n2CCC1=CCCCC1,82.7%
20,CCc1nc2sc(C(C)=O)c(N)c2c2c1CCCC2,122%
21,COC(=O)c1scc2c(=O)cc(C(F)(F)F)[nH]c12,70.6%
22,Cc1c(O)ccc2c(CN3CCN(C/C=C/c4ccccc4)CC3)cc(=O)oc12,70.6%

row,Compound,inhibition
1,COCCN1C=C(C(=O)OC)C(c2ccc(Cl)cc2)C(C(=O)OC)=C1,164%
2,Cc1ccc(S(=O)(=O)c2cc3c(=O)n4cccc(C)c4nc3n(CC3CCCO3)c2=N)cc1C (stereo unspecified),132%
3,Cc1cc(C)c2c(N)c(C(=O)Nc3ncc(C)s3)sc2n1,96.7%
4,Cc1nc2nc(-c3ccccc3)cn2nc1C,71.5%
5,CCOC(=O)c1cc2c(=O)n3ccccc3nc2n(CC(C)C)c1=NC(=O)c1ccco1,71.5%
6,CCCCN(CC)Cc1c(O)ccc2c3c(c(=O)oc12)CCC3,88.5%
7,CCN1C(=O)/C(=C/C=C2/CCCN2C)OC1=S,110%
8,CCN1C=C(C(=O)OC)C(c2cccc(OC)c2OC)C(C(=O)OC)=C1,70.6%
9,CCN(CC)CCN1C2=C(C(=O)CC(C)(C)C2)C(c2cccc(F)c2)C2=C1CC(C)(C)CC2=O,71.6%
10,Cc1ccsc1C1NC(=O)c2c(sc3c2CCN(C)C3)N1 (stereo unspecified),114%
11,COc1cc2ccc(=O)oc2c(O)c1OCC=C(C)C,72.9%
12,Cc1ccc(C(=O)/C=C\C(=O)c2ccc(C)cc2)cc1,54.8%
13,COc1cc(-c2nc3ccccc3s2)ccc1O,150%
14,Cc1cc(C)c2c(N)c(C(=O)C(C)(C)C)sc2n1,116%
15,COc1ccc(N=Cc2c(O)n(-c3ccc(OC)cc3)c(=O)c3ccccc23)cc1,70.6%
16,COc1ccc(-c2cc(-c3nnc(-c4ccncc4)o3)c3ccccc3n2)cc1,59.4%
17,CN1CCc2nc(NC(=O)c3cccc(OC(F)F)c3)sc2C1,77.3%
18,Cc1cccn2c(=O)c3cc(C(=O)NCc4cccnc4)c(=N)n(C)c3nc12,159%
19,COCCCNC(=S)NCCNc1nc2c(C)c(C)ccc2cc1C#N,75.8%
20,CCn1nc(NC(=O)C2CCCO2)c2cc3cccc(C)c3nc21 (stereo unspecified),83.8%
21,CCOC(=O)C(C)c1c(C(=O)c2ccc(C)nc2)c2ccccc2n1C (stereo unspecified),73.9%
22,COc1ccc(-n2c(O)c(C=Nc3ccccc3)c3ccccc3c2=O)cc1,66.1%

row,Compound,inhibition
1,O=C(Cc1cn2ccsc2n1)Nc1nc2c(s1)CN(Cc1ccccc1)CC2,108%
2,COCCn1c(=NC(=O)c2ccc3c(c2)OCO3)c(C#N)cc2c(=O)n3cccc(C)c3nc21,166%
3,COCCn1c(=N)c(C(=O)NCCc2ccc(OC)cc2)cc2c(=O)n3cccc(C)c3nc21,170%
4,CCOC(=O)c1cc2c(=O)n3ccccc3nc2n(CC2CCCO2)c1=NC(C)=O (stereo unspecified),72.9%
5,CCOCCCn1c(=N)c(C(N)=S)cc2c(=O)n3cccc(C)c3nc21,71.5%
6,CCC12OC(=N)C(C#N)(C1C)C(C#N)(C#N)C(c1ccccc1)O2 (stereo unspecified),110%
7,CCOC(=O)N1CCC(NC(=O)c2ccc3c(c2)N(C)CCS3)CC1,49.1%
8,Cc1cc(=O)oc2c(CN3CCC(C)CC3)c(O)c(Cl)cc12,141%
9,Cc1ccc(CNC(=O)/C(C#N)=C\c2ccc(N(C)C)cc2)cc1,72.7%
10,O=c1[nH]c(N/N=C/c2ccccc2)nc2ccccc12,61.1%
11,CCN(CC)CCNc1c2c(c(C#N)c3nc4ccccc4n13)CCCC2,64.1%
12,O=c1c2ccccc2sn1-c1ccccc1,56.1%
13,Cc1cc(C)c[n+](-c2nc3ccccc3nc2[N-]S(=O)(=O)c2ccc(Br)s2)c1,86.4%
14,O=C(Cn1c2ccccc2c(=O)c2ccccc21)Nc1cccc(F)c1,100%
15,Cc1c(OC(=O)CNC(=O)OC(C)(C)C)ccc2c3c(c(=O)oc12)CCC3,89.3%
16,CC1CCCCC1NC(=O)CN1C(=O)c2cccc(N)c2C1=O (stereo unspecified),70.6%
17,CCCCCCc1cc2cc(S(=O)(=O)c3ccc(Cl)cc3)c(=O)oc2cc1O,71.5%
18,Oc1c(C=NCc2ccncc2)sc2ccccc12,63.6%
19,CCCCCCc1cc2cc(C(=O)Nc3ccccc3OC)c(=O)oc2cc1O,77.3%
20,NC(=O)c1ccc(Oc2cccc3cccnc23)c([N+](=O)[O-])c1,118%
21,CCOC(=O)C1=C(CSc2nc3c(cc2C#N)CN(C)CC3)OC(N)=C(C#N)C1c1ccc(F)cc1 (stereo unspecified),61.6%
22,CCc1c(C)c2cc(Cl)c(O)c(CN(CC)CC)c2oc1=O,173%

row,Compound,inhibition
1,CCn1c(O)c(/C=N/NC(=O)c2ccncc2)c(=O)n(CC)c1=S,71.5%
2,S=c1[nH]nc(-c2cc3c(s2)-c2ccccc2CC3)o1,108%
3,N#Cc1c2c(c(Nc3ccccc3)n3c1nc1ccccc13)CCC2,105%
4,Cn1c(=N)c(S(=O)(=O)c2ccc(F)cc2)cc2c(=O)n3ccccc3nc21,72.9%
5,Cc1ccc(S(=O)(=O)C(C#N)c2nc3ccccc3nc2N2CCN(C)CC2)cc1 (stereo unspecified),70%
6,COCCN(CCOC)Cc1c(O)ccc2c3c(c(=O)oc12)CCC3,91%
7,Cc1ccc(S(=O)(=O)c2cc3c(=O)n4ccccc4nc3n(Cc3ccco3)c2=N)cc1,72.9%
8,COC(=O)c1c(N(S(C)(=O)=O)S(C)(=O)=O)sc2c1CCN(c1ncc(C(F)(F)F)cc1Cl)C2,131%
9,CCOC(=O)c1cc2c(=O)n3ccccc3nc2n(Cc2ccco2)c1=NC(=O)c1ccc(OC)cc1OC,70.6%
10,CCCn1c(=N)c(S(=O)(=O)c2ccccc2)cc2c(=O)n3ccccc3nc21,70.6%
11,N#CC1(C#N)C(c2ccccc2)OC23CCCCCC2C1(C#N)C(=N)O3 (stereo unspecified),72.8%
12,CN(C)CCCNC(=S)NCCNc1nc2cc3c(cc2cc1C#N)OCO3,174%
13,O=S(=O)(Nc1ccc(-c2nc3cccnc3s2)cc1)c1ccc(Cl)s1,129%
14,NSc1nc(N)c2nc(-c3ccccc3)c(-c3ccccc3)nc2n1,88.2%
15,COc1cccc(C2C=C(c3ccc(Br)s3)Nc3ncnn32)c1OC (stereo unspecified),71.5%
16,CCOC(=O)c1c(/N=C/N(C)C)sc(/C=N/Nc2ccccc2)c1-c1ccccc1,151%
17,O=c1oc2ccc3ccccc3c2cc1-c1nnc(-c2cccs2)o1,71.5%
18,O=C(O)CSc1c2c(nc3cc(C(=O)N4CCOCC4)ccc13)CCCC2,106%
19,O=C(Oc1ccc2c3c(c(=O)oc2c1)CCCC3)c1ccco1,178%
20,CS(=O)(=O)c1sc2nc(-c3cccs3)cc(-c3ccccc3)c2c1N,114%
21,Cc1ccc2nc3nc(NCC4CCCO4)c(C(=O)NC4CCCC4)cc3c(=O)n2c1 (stereo unspecified),71.5%
22,CCn1c2ccccc2c(=O)c2ccccc21,70.6%

row,Compound,inhibition
1,CCCCn1c(=NC(=O)c2cccnc2)c(C(=O)OCC)cc2c(=O)n3ccccc3nc21,102%
2,CC1C2(C)OCC(C#N)(C(=N)O2)C1(C#N)C#N (stereo unspecified),57.4%
3,COC(=O)c1cccc(/C=N/NC(N)=S)c1O,70.5%
4,COc1cc(C2C(C#N)=C(N)Oc3cc(N)ccc32)cc(OC)c1OC (stereo unspecified),61.6%
5,CCCn1c(=N)c(C(=O)NCc2ccc3c(c2)OCO3)cc2c(=O)n3cccc(C)c3nc21,148%
6,Cc1cc(C)n2c(=S)[nH]nc2n1,58.9%
7,COc1cccc(C2C3CN(C)CC=C3C(C#N)=C(N)C2(C#N)C#N)c1OC (stereo unspecified),74%
8,Cc1ccc(C)c(-n2c(=O)c(C#N)cc3c(=O)n4ccccc4nc32)c1,70.6%
9,CCc1ccc(S(=O)(=O)Nc2ccc(-c3nc4cccnc4s3)cc2)s1,138%
10,Cc1ncc(CO)c(/C=N/NC(=O)c2cc3c(s2)CCCC3)c1O,70.6%
11,COc1cc(OC)c(C2CC(=O)N3CN(c4ccccc4)CSC3=C2C#N)cc1OC (stereo unspecified),144%
12,CCCn1c(C)cc(C(=O)CN2C(=O)c3cccc(N)c3C2=O)c1C,72.9%
13,COCCCNC(=O)c1c(N)n(/N=C/c2cccs2)c2nc3ccccc3nc12,104%
14,COc1ccc(OCCn2cc(/C=C(\C#N)C(=O)NCc3ccco3)c3ccccc32)cc1,67%
15,CNCC(=O)N(CC(C)C)c1c(N)n(CC(C)C)c(=O)[nH]c1=O,56.9%
16,N=c1oc2ccc3ccccc3c2cc1C(N)=S,80.8%
17,O=c1oc2cc(O)ccc2c2oc3cc(O)ccc3c12,59.7%
18,Cc1cc(=O)oc2cc(NS(=O)(=O)c3ccccc3)ccc12,97.6%

# Reference: PubChem BioAssay AID1434 (Sanford-Burnham Center for Chemical Genomics, 2008)
